The whole screen tested about 360,000 compounds, of which about 16,000 (4.4%) were called active. The shares of active, inactive and inconclusive entries below differ from those in the screen. The call rests on the fitted dose curve; in most records, active means well fitted inhibition curve with a large enough effect; inconclusive means small, poorly fitted or top-dose-only effect; inactive means no such curve, though single readings can be large or run the other way. A potency beside an inconclusive call is a rough fit, not a confirmed value.
target: Bromodomain adjacent to zinc finger domain protein 2B (Homo sapiens) (UniProt Q9UIF8); experiment: qHTS Assay for Inhibitors of BAZ2B; details: AlphaScreen BAZ2B-H3K14Ac peptide displacement; activity change, negative = inhibition: at 114 µM (top of the series); further: nearly all actives have a fitted effect of over 60% in size
In short: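 In this displacement format the biotinylated H3(5-23) peptide acetylated at Lys14 serves as ligand at 50 nM, with BAZ2B at 50 nM in PBS pH 7.4 containing 0.01% Tween-20. Donor and acceptor beads are 10 ug/mL final.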
On the % scale 0 is the no-effect control and ±100 the full control effect; potency means the concentration at half of the fitted maximal effect; tags describe the fitted curve by direction and shape.

Chain of UniProt Q9UIF8 (Q9UIF8 whole entry, looked up, the tested form may be a part): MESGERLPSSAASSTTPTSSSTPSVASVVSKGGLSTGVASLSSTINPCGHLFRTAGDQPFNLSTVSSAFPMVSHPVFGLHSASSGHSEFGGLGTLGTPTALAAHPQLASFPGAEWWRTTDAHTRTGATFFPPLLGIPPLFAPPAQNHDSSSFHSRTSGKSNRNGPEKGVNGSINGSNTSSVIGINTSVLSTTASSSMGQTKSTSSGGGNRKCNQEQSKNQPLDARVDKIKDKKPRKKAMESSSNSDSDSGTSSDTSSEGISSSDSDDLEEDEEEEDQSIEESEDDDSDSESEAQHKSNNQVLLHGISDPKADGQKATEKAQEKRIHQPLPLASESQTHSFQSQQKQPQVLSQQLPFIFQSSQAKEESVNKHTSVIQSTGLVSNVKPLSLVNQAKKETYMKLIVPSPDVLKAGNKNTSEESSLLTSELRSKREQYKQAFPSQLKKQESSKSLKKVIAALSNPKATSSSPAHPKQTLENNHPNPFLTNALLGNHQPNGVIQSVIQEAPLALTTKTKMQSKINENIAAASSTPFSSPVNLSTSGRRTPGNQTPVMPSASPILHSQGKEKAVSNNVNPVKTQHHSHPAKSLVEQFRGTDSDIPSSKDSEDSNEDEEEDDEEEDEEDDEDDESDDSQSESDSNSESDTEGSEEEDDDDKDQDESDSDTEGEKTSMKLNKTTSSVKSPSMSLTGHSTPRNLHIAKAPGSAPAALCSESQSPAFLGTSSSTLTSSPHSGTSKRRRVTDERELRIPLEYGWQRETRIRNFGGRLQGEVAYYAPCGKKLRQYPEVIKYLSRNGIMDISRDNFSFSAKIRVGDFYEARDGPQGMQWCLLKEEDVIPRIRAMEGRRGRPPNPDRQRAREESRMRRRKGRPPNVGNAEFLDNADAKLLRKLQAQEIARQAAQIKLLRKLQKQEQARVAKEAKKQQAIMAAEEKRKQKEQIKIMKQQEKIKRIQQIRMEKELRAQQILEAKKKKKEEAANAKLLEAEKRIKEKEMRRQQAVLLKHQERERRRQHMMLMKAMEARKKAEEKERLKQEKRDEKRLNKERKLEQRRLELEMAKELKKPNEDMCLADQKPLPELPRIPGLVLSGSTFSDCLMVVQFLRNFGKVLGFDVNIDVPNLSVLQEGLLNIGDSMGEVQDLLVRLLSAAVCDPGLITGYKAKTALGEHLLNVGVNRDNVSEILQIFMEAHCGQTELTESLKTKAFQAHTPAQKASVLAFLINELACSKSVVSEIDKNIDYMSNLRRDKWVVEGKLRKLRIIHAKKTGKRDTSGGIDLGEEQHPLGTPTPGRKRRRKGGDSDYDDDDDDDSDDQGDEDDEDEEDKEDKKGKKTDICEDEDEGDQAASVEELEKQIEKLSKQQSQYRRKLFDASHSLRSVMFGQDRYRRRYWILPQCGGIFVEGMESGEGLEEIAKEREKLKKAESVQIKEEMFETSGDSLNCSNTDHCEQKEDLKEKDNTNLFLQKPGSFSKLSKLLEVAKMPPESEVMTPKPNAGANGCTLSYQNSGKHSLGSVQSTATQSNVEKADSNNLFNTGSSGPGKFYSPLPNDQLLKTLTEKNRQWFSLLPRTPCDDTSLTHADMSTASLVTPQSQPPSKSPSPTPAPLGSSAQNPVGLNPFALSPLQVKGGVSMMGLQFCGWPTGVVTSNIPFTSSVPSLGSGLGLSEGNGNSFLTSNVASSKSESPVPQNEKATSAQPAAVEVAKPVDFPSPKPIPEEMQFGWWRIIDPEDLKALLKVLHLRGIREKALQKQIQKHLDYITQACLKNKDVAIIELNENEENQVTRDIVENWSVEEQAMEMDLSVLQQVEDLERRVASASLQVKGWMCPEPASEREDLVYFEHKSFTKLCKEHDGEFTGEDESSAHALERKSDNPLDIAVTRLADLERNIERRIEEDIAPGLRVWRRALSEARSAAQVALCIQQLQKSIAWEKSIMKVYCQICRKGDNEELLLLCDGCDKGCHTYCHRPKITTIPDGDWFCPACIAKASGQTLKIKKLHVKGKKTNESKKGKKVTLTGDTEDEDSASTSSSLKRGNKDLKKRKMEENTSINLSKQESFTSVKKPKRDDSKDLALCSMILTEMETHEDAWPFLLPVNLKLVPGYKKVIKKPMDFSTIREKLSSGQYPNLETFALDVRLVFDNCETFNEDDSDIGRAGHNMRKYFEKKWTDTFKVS

SMILES	Potency	activity change, negative = inhibition
O=C(Nc1ccc(Cl)cc1C(=O)N1CCCC1)c1cccc([N+](=O)[O-])c1	inconclusive: 89.1 µM [inhibitor, single point]	
CCCn1c(CNc2ccccc2O)nc2ccccc21	inconclusive: 79.4 µM [inhibitor, single point]	
CC1CCCN(C(=O)Cc2cn(Cc3cccc(Cl)c3)c3ccccc23)C1 (centres undefined)	inconclusive: 79.4 µM [inhibitor, single point]	
O=C1NC(=Nc2ccccc2)/C(=C/c2ccco2)S1	active: 50.1 µM	
CN(NC1OC(=O)c2ccccc21)c1ccc(Cl)cc1[N+](=O)[O-] (centres undefined)	inconclusive: 79.4 µM [inhibitor, single point]	
Cc1ccc(C(C(=O)NC2CCCC2)N(Cc2cccs2)C(=O)CNC(=O)c2cccs2)o1 (centres undefined)	inconclusive: 50.1 µM [inhibitor, partial curve]	
COCCn1c(C)cc(C(=O)CSc2n[nH]c(N)n2)c1C		inactive: -31.1%
Cc1c(C(=O)N(Cc2ccc(F)cc2)C2CCS(=O)(=O)C2)oc2ccccc12 (centres undefined)	inconclusive: 79.4 µM [inhibitor, single point]	
CCCNC(=S)Nc1ccc(Nc2ccccc2)cc1	inconclusive: 25.1 µM [inhibitor, full curve]	
Cc1cc(C(=O)O)ccc1-c1ccc(/C=C2\NC(=O)N(Cc3ccc(F)cc3)C2=O)o1	active: 39.8 µM	
COc1ccc(C2C(C(C)=O)=C(O)C(=O)N2c2nccs2)cc1 (centres undefined)	inconclusive: 89.1 µM [inhibitor, single point]	
O=Nc1c(O)n(Cc2cccc(C(F)(F)F)c2)c2ccccc12	inconclusive: 70.8 µM [inhibitor, single point]	
COc1cc(C(C)=O)ccc1OCC(=O)Nc1ccccc1N1CCCC1	inconclusive: 39.8 µM [inhibitor, partial curve]	
O=c1cc(-c2ccc(O)c(O)c2)oc2cc(O)c(C3OC(CO)C(O)C(O)C3O)c(O)c12 (centres undefined)	inconclusive: 79.4 µM [inhibitor, single point]	
Cc1cc(=S)c2ccccc2[nH]1	inconclusive: 79.4 µM [inhibitor, single point]	
Cc1ccc(Cl)cc1N1CCN(C(=O)c2cc(S(=O)(=O)N3CCCCCC3)cn2C)CC1	inconclusive: 20 µM [inhibitor, full curve]	
Cc1cc(C(=O)COC(=O)c2ccc(O)cc2O)c(C)n1-c1ccccc1	inconclusive: 79.4 µM [inhibitor, single point]	
CCCc1ccc(-c2cc(NC(=O)CSc3n[nH]c(N)n3)n(-c3ccccc3)n2)cc1	inconclusive: 89.1 µM [inhibitor, single point]	
CC1CCCCC12NC(=O)N(CC(=O)Nc1sc3c(c1C(N)=O)CCC3)C2=O (centres undefined)	inconclusive: 79.4 µM [inhibitor, single point]	
CN(CC(=O)NCCc1ccc(S(N)(=O)=O)cc1)S(=O)(=O)c1cccc2nsnc12		inactive: 0.9%
CC(=O)c1c(C)[nH]c(C(=O)OCC(=O)N(C)C)c1C	inconclusive: 89.1 µM [inhibitor, single point]	
COc1ccc(CN=C2NN=C(c3cccc(OC)c3)CS2)cc1	inconclusive: 44.7 µM [inhibitor, partial curve]	
COc1cccc(Nc2sc(C(=O)c3ccc(F)cc3)c(N)c2C(=O)NCc2ccc(C)cc2)c1	inconclusive: 28.2 µM [inhibitor, full curve, poor fit]	

SMILES	Potency	activity change, negative = inhibition
CC(NC(=O)c1cccc(S(=O)(=O)N2CCN(Cc3ccccc3)CC2)c1)c1ccc(Cl)cc1 (centres undefined)		inactive: -0.876%
CC(=O)c1c(C)[nH]c(C(=O)Nc2c(C)n(C)n(-c3ccccc3)c2=O)c1C	inconclusive: 79.4 µM [inhibitor, partial curve]	
COc1ccc(NC(=O)CSc2c3c(nc4ccccc24)CCC3)c(OC)c1		inactive: -2.71%
Cc1ccc(OCCn2c(NC(=O)c3ccco3)nc3ccccc32)cc1	inconclusive: 89.1 µM [inhibitor, single point]	
CCC(=O)NC(=S)NNC(=O)c1ccc(O)cc1		inactive: -0.426%
O=C(/C=C/Nc1nccs1)C(F)(F)Cl	inconclusive: 70.8 µM [inhibitor, partial curve]	
O=C(NCc1ccco1)c1cc([N+](=O)[O-])ccc1N1CCOCC1	active: 79.4 µM	
CCOC(=O)C1=C(CN2CCN(c3cccc(OC)c3)CC2)NC(=O)NC1c1ccc(OC)cc1 (centres undefined)	inconclusive: 50.1 µM [inhibitor, partial curve]	
Cn1c(=O)c2c(n3ncnc13)NC(=O)CC2c1cccc(F)c1 (centres undefined)		inactive: -20.5%
CC(=O)Nc1ccc(S(=O)(=O)Nc2nc(-c3ccc(C(C)(C)C)cc3)cs2)cc1	inconclusive: 50.1 µM [inhibitor, partial curve]	
COc1ccccc1N1C(=O)CC(Sc2nccc(C)n2)C1=O (centres undefined)		inactive: 7.45%
CN1CCN(CCCNC(=O)c2ccc(NC(=O)C3=CSCCO3)cc2)CC1	inconclusive: 39.8 µM [inhibitor, single point]	
O=C(O)/C=C/C(=O)Nc1ccc(Oc2ccc(NC(=O)/C=C/C(=O)O)cc2)cc1	active: 50.1 µM	
O=C(Nc1ccc(N2CCCC2)c(Cl)c1)c1ccc([N+](=O)[O-])o1	active: 17.8 µM	
COc1ccccc1C(CNC(=O)c1ccc(S(=O)(=O)NCc2ccco2)cc1)N(C)C (centres undefined)		inactive: 2.06%
CC(C)(C)Cc1cc(N)on1		inactive: -6.2%
O=c1ccc(-c2ccc([N+](=O)[O-])cc2)nn1-c1ccccc1		inactive: 0.158%
CCC(C)(C(=O)NC1CCCCC1)N(C(=O)c1ccccn1)c1ccccc1 (centres undefined)	inconclusive: 89.1 µM [inhibitor, single point]	
COc1ccc(/C=C2\SC(=S)N(CCC(=O)NCCCN3CCOCC3)C2=O)cc1	inconclusive: 79.4 µM [inhibitor, single point]	
COc1ccccc1C(=O)COC(=O)c1ccc(N(C)C)cc1	inconclusive: 70.8 µM [inhibitor, single point]	
CCOc1ccccc1NC(=O)Cn1ncc2ccc([N+](=O)[O-])cc21	inconclusive: 70.8 µM [inhibitor, single point]	
CCN(CC)S(=O)(=O)c1cc(NC(=O)NCCCl)ccc1C		inactive: -31.8%
CC(C)(C)NC(=O)COC(=O)c1c2c(nc3ccccc13)CCC2	inconclusive: 56.2 µM [inhibitor, partial curve]	

SMILES	Potency	activity change, negative = inhibition
Cc1ccc2c(c1)C(=O)C(=O)N2Cc1ccc(OC(C)C)cc1	inconclusive: 5.01 µM [inhibitor, full curve]	
CCCC(=NCCc1c(C)[nH]c2ccccc12)C1=C(O)CC(c2ccccc2)CC1=O (centres undefined)	inconclusive: 70.8 µM [inhibitor, single point]	
N#CCSc1ccccc1NC(=O)COC(=O)Cc1c[nH]c2ccccc12	inconclusive: 89.1 µM [inhibitor, single point]	
Cc1cc(/C=C2\Sc3ccccc3N2C)cc(C)[n+]1CC1CCCO1 (centres undefined)		inactive: -15%
Cc1ccc2c(c1)CC(C)N2S(=O)(=O)c1nnc(NC(=O)c2ccccc2F)s1 (centres undefined)	inconclusive: 31.6 µM [inhibitor, partial curve]	
CCCCCC(=O)N=Nc1c(O)[nH]c2ccc([N+](=O)[O-])cc12	inconclusive: 100 µM [inhibitor, single point]	
CC(C)(S)[C@@H](N)C(=O)O	active: 44.7 µM	
COc1cc(NC(=O)c2ccc([N+](=O)[O-])o2)ccc1NC(=O)c1ccco1	inconclusive: 56.2 µM [inhibitor, partial curve, poor fit]	
CCn1c(=N)n(CC(=O)c2cccc(OC)c2)c2ccccc21	inconclusive: 89.1 µM [inhibitor, single point]	
CCN(CC(=O)Nc1c(C(=O)OC)[nH]c2ccc(Cl)cc12)c1ccc2c(c1)OCO2	active: 39.8 µM	
Cc1cccc(OCC(=O)Nc2ccc(Cl)c(-c3nc4ccccc4[nH]3)c2)c1		inactive: -4.06%
CC(CNCC1CCCO1)COc1cccc2ccccc12 (centres undefined)	inconclusive: 89.1 µM [inhibitor, single point]	
COC(=O)C1=C(C)N(Cc2ccccc2)C(=NCc2ccc(OC)cc2)N[C@H]1c1cccc(F)c1	inconclusive: 89.1 µM [inhibitor, single point]	
CCOC(=O)c1c(NC(=O)CSc2ccccc2C(=O)O)sc(C)c1C	active: 50.1 µM	
CN1CCc2nc3sc(C(=O)Nc4cccc(C#N)c4)c(N)c3cc2C1	inconclusive: 39.8 µM [inhibitor, single point]	
CCCCN(C)CCNC(=O)C1CCN(S(=O)(=O)c2cccc3nsnc23)CC1		inactive: -21.4%
S=c1[nH]nc(-c2ccccn2)n1/N=C/c1ccco1	active: 8.91 µM	
O=C(NCc1cc([N+](=O)[O-])ccc1O)c1cc(-c2ccncc2)nc2ccccc12	inconclusive: 39.8 µM [inhibitor, partial curve]	
O=C(CCn1nc(-c2ccc(Cl)cc2)ccc1=O)NCc1ccccn1	inconclusive: 89.1 µM [inhibitor, single point]	
CCCOc1ccc(C2c3c(-c4ccccc4O)n[nH]c3C(=O)N2CCCOCC)cc1OCC (centres undefined)		inactive: -2.56%
O=C1c2ccccc2C(=O)N1Cc1cnc(N2CCN(c3ccccc3)CC2)s1	inconclusive: 35.5 µM [inhibitor, partial curve]	
Cc1ccc(Cl)cc1N1CCN(CCCNC(=O)c2nnc(Cc3cccc(Cl)c3)o2)CC1	inconclusive: 31.6 µM [inhibitor, full curve]	
Cn1nnnc1NC(=O)c1ccccc1Cl	active: 50.1 µM	
